Experimental data taken from publication PMC11180146, “Human gut microbes express functionally distinct endoglycosidases to metabolize the same N-glycan substrate” (Nature Communications, 2024).

T1: BT1285i_(H126A) (Bacteroides thetaiotaomicron VPI-5482)
T1 construct: Parent is m1; source: E. coli BL21(DE3), purified (Ni-NTA, SUMO protease, second Ni-NTA, SEC)
T1 chain: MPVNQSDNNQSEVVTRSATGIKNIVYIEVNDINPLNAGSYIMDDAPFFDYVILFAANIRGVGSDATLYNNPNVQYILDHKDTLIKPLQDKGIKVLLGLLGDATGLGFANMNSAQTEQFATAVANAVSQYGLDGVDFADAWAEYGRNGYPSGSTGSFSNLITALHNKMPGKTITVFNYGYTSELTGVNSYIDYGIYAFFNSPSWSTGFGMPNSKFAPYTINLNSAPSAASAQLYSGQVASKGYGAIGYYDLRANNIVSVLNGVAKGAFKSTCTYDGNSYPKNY


Assays:
[1] = target: RNAseB, glycosylated (HM N-glycan at N34, mainly Man5 and Man6) (beef (bovine), as said of the protein in general) (UniProt P61823); test: SPR; glycosylated RNAseB (Man5/6) amine-coupled to a CM5 chip on flow cell 2 (150 RU), deglycosylated RNAseB on control flow cell 1; enzyme as analyte, 120 s injection, 600 s dissociation; HBS-EP running buffer; Biacore X100
BT1285i_(H126A) = target: T1, BT1285i_(H126A); test: SPR; IgG1 glycoforms captured on a Protein A sensor chip (flow cell 2, up to 400 RU, 15 nM IgG1); serial dilutions of the enzyme as analyte; HBS-EP running buffer (10 mM HEPES, 150 mM NaCl, 0.005 % Tween 20, 3 mM EDTA); Biacore X100; conditions: both partners purified

Molecule | fold lower affinity than BT1285i [1] | fold lower affinity than BT1285i (BT1285i_(H126A))
BT1285i_(H126A) (enzyme) | 1000 fold | –
monoclonal IgG1 antibody (Rituximab)-HM, bearing Man8 and Man9 at Asn297 (antibody, V domains shown, variable domain of the heavy chain of Rituximab; constant region of the IgG1 heavy chain of Rituximab; light chain of Rituximab; IgG1; also called IgG-HM; IgG1-HM; source: Expi293 cells and/or HEK cells, transfected, with kifunensine; purified (protein A); copies: 2 + 2) VH: QVQLQQPGAELVKPGASVKMSCKASGYTFTSYNMHWVKQTPGRGLEWIGAIYPGNGDTSYNQKFKGKATLTADKSSSTAYMQLSSLTSEDSAVYYCARSTYYGGDWYFNVWGAGTTVTVSA VL: QIVLSQSPAILSASPGEKVTMTCRASSSVSYIHWFQQKPGSSPKPWIYATSNLASGVPVRFSGSGSGTSYSLTISRVEAEDAATYYCQQWTSNPPTFGGGTKLEIK | – | 1000 fold
IgG1 (Rituximab) Man5/Man5 (antibody, V domains shown, variable domain of the heavy chain of Rituximab, as in m5; constant region of the IgG1 heavy chain of Rituximab; light chain of Rituximab, as the light chain of m5; IgG1; same chains as m5, other glycoform; also called IgG-Man5; IgG-Man5/Man5; source: IgG-Man9 (Expi293 and/or HEK cells, kifunensine, protein A) incubated with α(1-2)-mannosidase (Aspergillus saitoi); copies: 2 + 2) VH: QVQLQQPGAELVKPGASVKMSCKASGYTFTSYNMHWVKQTPGRGLEWIGAIYPGNGDTSYNQKFKGKATLTADKSSSTAYMQLSSLTSEDSAVYYCARSTYYGGDWYFNVWGAGTTVTVSA VL: QIVLSQSPAILSASPGEKVTMTCRASSSVSYIHWFQQKPGSSPKPWIYATSNLASGVPVRFSGSGSGTSYSLTISRVEAEDAATYYCQQWTSNPPTFGGGTKLEIK | – | 1000 fold
